From PubChem BioAssay (NCATS)
Several values for one entry are separate records, joined by “and”; a condition that tells them apart may be missing. Equal entries are not always repeated. The shares of active, inactive and inconclusive entries below differ from those in the screen. Where the call is inconclusive, the potency comes from a doubtful curve fit. Activity calls are given as the source filed them. The call rests on the fitted dose curve; in most records, active means well fitted curve in the direction sought with a large enough effect; inconclusive means small, poorly fitted or top-dose-only effect, or another doubt; inactive means no such curve, though single readings can be large; an effect the other way counts as inactive or inconclusive.

Columns and labels:
[1] = qHTS of pediatric cancer cell lines to identify multiple opportunities for drug repurposing: Primary screen for SJ-GBM2 cells (AID 1347091);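 on activity change, negative = cytotoxic: plate controls were DMSO neutral control for no effect and bortezomib for full effect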
Method in brief: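 Cell viability, CellTiter-Glo luminescence; 500-1,000 cells/well, 8- or 11-point titration, 48 h compound exposure at 37 degrees C, 5% CO2. Controls: DMSO neutral, bortezomib 2.3 µM final as positive.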

[2] = qHTS of pediatric cancer cell lines to identify multiple opportunities for drug repurposing: Primary screen for A673 cells (AID 1347092); settings: A673 Ewing sarcoma viability, CellTiter-Glo ATP luminescence, 48 h; activity change, negative = cytotoxic: at 46 µM (top of the series); further: nearly all actives have a fitted effect of over 45% in size; on activity change, negative = cytotoxic: on the % scale 0 is the no-effect control and ±100 the full control effect
Method in brief: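 48 h compound exposure, A673, 500-1,000 cells/well, 37 degrees C/5% CO2. MIPE: 11-point, 0.78 nM-46 µM; NPC: 8-point, 0.59 nM-46 µM (final). Readout CellTiter-Glo luminescence after 15 min RT.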

[3] = qHTS of pediatric cancer cell lines to identify multiple opportunities for drug repurposing: Primary screen for SK-N-MC cells (AID 1347093); settings: SK-N-MC viability, CellTiter-Glo luminescence, 48 h; activity change, negative = cytotoxic: at 46 µM (top of the series);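 on activity change, negative = cytotoxic: plate controls were DMSO neutral control for no effect and bortezomib for full effect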
Method in brief: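 Metabolically active cells were quantified by ATP-dependent luminescence (CellTiter-Glo, 15 min at room temperature) following 48 h treatment. Cells had been plated at 500-1,000 per well and settled for 5 h beforehand.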

[4] = qHTS of pediatric cancer cell lines to identify multiple opportunities for drug repurposing: Primary screen for BT-37 cells (AID 1347094);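 on activity change, negative = cytotoxic: plate controls were DMSO for no effect and bortezomib for full effect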
Method in brief: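 ATP-based luminescence (CellTiter-Glo) quantifies viability after a 48-hour exposure. Compounds are dosed across 8 or 11 final concentrations; DMSO and 2.3 µM bortezomib serve as controls.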
Potency means the concentration at half of the fitted maximal effect; tags describe the fitted curve by direction and shape.

Structure (SMILES)	Potency [1]	Potency [2]	Potency [3]	Potency [4]	activity change, negative = cytotoxic [3]
Cc1ccc2c(c1)C(=O)[C@]1(O)CCN(c3ccccc3)C1=N2	inconclusive: 2.96 µM [cytotoxic, full curve]	inconclusive: 18.7 µM [cytotoxic, partial curve]	active: 20.9 µM	inactive	
O=C(O)c1ccc(-c2c[nH]c3ncc(-c4ccccc4)cc23)cc1C1CCCC1	inconclusive: 1.18 µM [cytotoxic, full curve]	inconclusive: 7.43 µM [cytotoxic, full curve]			
CCOC(=O)C=C[C@H](C[C@@H]1CCNC1=O)NC(=O)[C@@H](CC(=O)[C@@H](NC(=O)c1cc(C)on1)C(C)C)Cc1ccc(F)cc1	inactive	inactive			inconclusive: -47.6% [cytotoxic]
CCOC(=O)C(C)(C)Oc1ccc(Cl)cc1	inconclusive: 16.6 µM [cytotoxic, partial curve]		inactive	inconclusive: 21.7 µM [cytotoxic, partial curve]	
O=C(O)c1nc(=O)[nH]c(=O)[nH]1	inconclusive: 7.24 µM [cytotoxic, partial curve, poor fit]	inactive			
CNC[C@H](O)c1cccc(O)c1	inactive				
COc1cc(C(C)=O)ccc1OCCCN1CCC(c2noc3cc(F)ccc23)CC1	inconclusive: 37.2 µM [cytotoxic, single point] and inconclusive: 33.5 µM [cytotoxic, single point]	inconclusive: 37.2 µM [cytotoxic, single point]	inconclusive: 29.9 µM [cytotoxic, partial curve, poor fit]	inconclusive: 21.7 µM [cytotoxic, partial curve, poor fit] and inconclusive: 12.3 µM [cytotoxic, partial curve]	
